The whole screen tested about 48,000 compounds, of which about 550 (1.1%) were called active. Another 4% or so got no clear call; they are omitted. Rule as the data show it: active = potency below about 15 µM; inconclusive = mostly about 16 µM to 33 µM; inactive = weaker than that. The list shows a part of the results.
Potency is read from the fitted curve at half-maximal effect.

Sequence of UniProt P04062 (P04062 whole entry, looked up): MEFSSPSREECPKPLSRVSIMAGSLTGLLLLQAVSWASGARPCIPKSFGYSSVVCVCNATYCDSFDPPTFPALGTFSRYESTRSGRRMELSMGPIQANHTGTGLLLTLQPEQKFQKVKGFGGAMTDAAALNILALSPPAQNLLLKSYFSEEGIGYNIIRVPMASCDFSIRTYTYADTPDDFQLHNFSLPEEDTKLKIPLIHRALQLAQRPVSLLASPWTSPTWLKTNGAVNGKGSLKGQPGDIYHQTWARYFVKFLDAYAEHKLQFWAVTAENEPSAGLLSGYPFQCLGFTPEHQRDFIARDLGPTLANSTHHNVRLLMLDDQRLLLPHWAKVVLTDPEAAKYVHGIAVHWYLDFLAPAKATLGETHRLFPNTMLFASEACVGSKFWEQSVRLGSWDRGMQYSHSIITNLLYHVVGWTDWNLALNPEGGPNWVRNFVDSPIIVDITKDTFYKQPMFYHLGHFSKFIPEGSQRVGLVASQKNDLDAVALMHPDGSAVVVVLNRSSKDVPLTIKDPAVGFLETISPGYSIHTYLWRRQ

For this experiment, the target named is Lysosomal acid glucosylceramidase (Homo sapiens) (UniProt P04062). Put plainly: Glucocerebrosidase.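 Also: the screen sought inhibitors.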 The following applies: purified enzyme, resorufin glucoside fluorescence (screen aimed at inhibitors), 20 min. Summed up:
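Normal human glucocerebrosidase (0.2 nM final) was assayed with resorufin β-D-glucopyranoside (30 uM final) in 50mM citric acid/KH2PO4, 10mM sodium taurocholate, 0.01% tween-20, pH 5.9. Compounds were titrated; fluorescence (Ex 548, Em 600) read after 20 min at RT.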
Turning to `O=C(NCCN1CCOCC1)c1cccc(S(=O)(=O)N2CCCCCC2)c1`, the Potency entry is “inactive”.
Take `CC1CCCC(C)N1C(=O)CN1C(=O)C(C)(C)Oc2ccc(C(=O)NC3CCCC3)cc21` (centres undefined): the Potency is inactive: > 76.9 µM.
Take `CCS(=O)(=O)n1nc(-c2ccco2)nc1SC`: the Potency was inactive: > 76.9 µM.
`COc1ccccc1NC(=O)Cc1csc(N)n1`: the Potency was inactive: > 76.9 µM.
Regarding `COC(=O)CSc1nnc(-c2ccoc2C)n1-c1ccc(OC)cc1`, the Potency was inactive: > 76.9 µM.
Turning to `O=C(CSc1nnc(Cc2ccccc2)n1C1CCCCC1)N1CCOCC1`, the Potency was inactive: > 76.9 µM.
The figure for `Cc1noc(C)c1CSc1ncnc2sc(C)c(C)c12` is inactive: > 76.9 µM; for `COc1ccc(CNC(=O)c2cc3c(=O)n4ccccc4nc3n(CC3CCCO3)c2=N)cc1` (centres undefined) it is inactive: > 76.9 µM.
As for `COCCn1c(C)cc(C(=O)CSc2nc(C)cc(C)c2C#N)c1C`, the Potency was inactive: > 76.9 µM.
Regarding `O=C(C1CC1)N1CCc2cc(Br)cc(S(=O)(=O)NC3CCCCC3)c21`, the Potency was inactive: > 76.9 µM.
Take `COc1cc(NC(=O)C2CCCCN2)ccc1OCC(C)C` (centres undefined): the Potency is inactive: > 76.9 µM.
Regarding `Cc1sc2nc(SCc3nnc(-c4cccs4)o3)n(C3CCCC3)c(=O)c2c1C`, the Potency is inactive: > 76.9 µM.
Take `CC(C)(C)c1ccc(-c2nnc(SCC(=O)O)n2N)cc1`: the Potency was inactive: > 76.9 µM.
With `COc1cccc(NS(=O)(=O)c2cc(C)sc2C)c1`, the Potency is inactive: > 76.9 µM.
Next, `Cn1nc(CC(=O)N2CCN(c3ccccc3)CC2)c2ccccc2c1=O`: inactive: > 76.9 µM; `Nc1nc(-c2ccc(Cl)cc2)cc(C(F)(F)F)n1`: inactive: > 76.9 µM.
With `CCC(=Nc1ccc(Cc2ccncc2)cc1)c1c(O)n(C)c(=O)n(C)c1=O`, the Potency is inactive: > 76.9 µM.
Turning to `O=C1CCCC2=C1C(c1ccccc1)CC(=O)N2c1ccccc1` (centres undefined), the Potency is inactive: > 76.9 µM.
The figure for `COCCN(C(=O)C(C)C)c1nnc(-c2cccc(C)c2)s1` is inactive: > 76.9 µM; for `O=C(COc1ccccc1)NC1CCN(Cc2ccccc2)CC1` it is inactive: > 76.9 µM.
Next, `CCCSc1nnc(Sc2nnnn2-c2ccccc2)s1`: inactive: > 76.9 µM; `COc1cccc(OC)c1C(=O)N1CCN(S(=O)(=O)c2ccccc2)CC1`: inactive: > 76.9 µM; `CC1(C)N=C(/C=N/O)C=[N+]1[O-]`: inactive: > 76.9 µM.
The figure for `CC1(C)CC2(CCCN3C(=O)CSC32)CCS1` (centres undefined) is inactive: > 76.9 µM.
As for `O=C(c1cccs1)N1CCOCC1`, the Potency was inactive: > 76.9 µM.
Next, `Cc1c(NS(=O)(=O)c2ccc3c(c2)n(C)c(=O)n3C)c(=O)n(-c2ccccc2)n1C`: inactive: > 76.9 µM; `Cc1ccc(C)c(/C(O)=C2/C(=O)C(=O)N(CCN3CCOCC3)C2c2ccco2)c1` (centres undefined): inactive: > 76.9 µM; `Cc1ccc(-c2nn(C)c(=O)c3ccccc23)cc1S(=O)(=O)N1CCOCC1`: inactive: > 76.9 µM.
The figure for `CN(C)S(=O)(=O)NCc1ccc2c(c1)OCO2` is inactive: > 76.9 µM; for `Cc1c(C#N)c2ccccc2n1CC(=O)O` it is inactive: > 76.9 µM; for `CCCN(CCC)S(=O)(=O)c1ccc(NS(C)(=O)=O)cc1` it is inactive: > 76.9 µM.
The figure for `COc1ccccc1C(=O)Nc1ncc2c(n1)CC(c1ccco1)CC2=O` (centres undefined) is inactive: > 76.9 µM.
As for `CCN1CCN(CC(=O)Nc2cc(F)ccc2C)CC1`, the Potency is inactive: > 76.9 µM.
With `[O-][n+]1onc2c1CCc1nnccc1-2`, the Potency was inactive: > 76.9 µM.
For `COc1ccc(-c2nnc3n2-c2ccccc2SC3)cc1OC`, the Potency was inactive: > 76.9 µM.
As for `CSCC[C@H](NC(=O)NCc1ccc(F)cc1)C(=O)O`, the Potency was inactive: > 76.9 µM.
As to `COC(=O)c1ccc(CSc2nc3sc4c(c3c(=O)n2C)CCCC4)o1`, the Potency is inactive: > 76.9 µM.
For the compound `c1cncc(-c2nc3cc(Cc4ccc5oc(-c6cccnc6)nc5c4)ccc3o2)c1`, the Potency is inactive: > 76.9 µM.
The figure for `Oc1ccc2[nH]cnc2c1CN1CCCCC1` is inactive: > 76.9 µM; for `O=C(COC(=O)CNC(=O)C1CCCCC1)Nc1ccc(Cl)cn1` it is inactive: > 76.9 µM.
Next, `CCOC(=O)Cn1cc(C(=O)c2ccco2)c2ccccc21`: inactive: > 76.9 µM; `O=C(CSc1nnc(NCc2ccccc2)s1)c1ccco1`: inactive: > 76.9 µM; `O=C(COc1ccc(Cl)cc1Cl)Nc1ccc2nc3n(c(=O)c2c1)CCCC3`: inactive: > 76.9 µM.
As to `Cc1cc(-c2cccnc2)c(C#N)c(SCC#N)n1`, the Potency is inactive: > 76.9 µM.
On to `Cc1noc(NS(=O)(=O)c2ccc(NC(=O)CS(=O)(=O)c3ccccc3)cc2)c1C`, for which the Potency is inactive: > 76.9 µM.
On to `CCCCCC(=O)Nc1ccc2oc(-c3cncc(Br)c3)nc2c1`, for which the Potency was inactive: > 76.9 µM.
Next, `CC1CCN(S(=O)(=O)c2cccc(C(N)=O)c2)CC1`: inactive: > 76.9 µM.
The figure for `Cc1cc2cc(CN3C(=O)c4ccccc4C3=O)ccc2[nH]1` is inactive: > 76.9 µM; for `COC(=O)C1=C(N)Oc2cc(C)n(Cc3cccnc3)c(=O)c2C1c1ccc(OC)c(OC)c1OC` (centres undefined) it is inactive: > 76.9 µM.
Take `CCN(CC)S(=O)(=O)c1ccc2c(c1)c(=O)c(C(=O)NCCOC)cn2C`: the Potency was inactive: > 76.9 µM.
For the compound `CCCn1c(SCC(=O)NC(=O)NCc2ccco2)n[nH]c1=O`, the Potency was inactive: > 76.9 µM.
The figure for `CN(Cc1ccc(OC(F)F)cc1)C(=O)c1ccc2nccnc2c1` is inactive: > 76.9 µM.
Take `Cc1ccc(C(=O)CSc2nc(C)cc(SCc3nnc(-c4ccccc4)o3)n2)cc1`: the Potency was inactive: > 76.9 µM.
Turning to `CN(C)CCN1C(=O)c2oc3ccccc3c(=O)c2C1c1cccc(Br)c1` (centres undefined), the Potency is inactive: > 76.9 µM.
Turning to `CCc1ccc(CNc2ccc(O)cc2)cc1`, the Potency is active: 11 µM.
Next, `COc1ccc2nc(NC(=O)c3ccoc3C)sc2c1`: inactive: > 76.9 µM.
Next, `COCC(=O)Nc1ccc(S(=O)(=O)NCCc2ccccc2)cc1`: inactive: > 76.9 µM; `N#Cc1nc(COc2cccc(Cl)c2)oc1N1CCN(c2ccccc2)CC1`: inactive: > 76.9 µM; `CC(C)(CNS(=O)(=O)c1ccc(F)cc1)CNS(=O)(=O)c1ccc(F)cc1`: inactive: > 76.9 µM.

The record behind these values is PubChem BioAssay AID360 (National Center for Advancing Translational Sciences (NCATS), 2006).
